Reference: the supplement of paper PMC11417369
± gives the standard deviation of the averaged measurements. The list shows a part of the results.

system: PfAP2-I AP2 domain 3 (GST-tagged); test: gcPBM binding intensity (ln(normalized median fluorescence intensity)); higher = stronger DNA binding
Method in brief: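 Probes on an Agilent 4 × 180k array were primer-extended, double-stranded and 36 bp long, taken from intergenic genomic regions, with negative controls added. GST-tagged P. falciparum DNA-binding domains from E. coli, about 25 μg on average, were applied to the array for 1 h in 1× PBS containing 1% milk, 0.2 mg/ml BSA, 0.5% salmon testes DNA and 0.03% Triton X-100. Binding intensity, obtained after Alexa488 anti-GST antibody detection and a 488 nm scan, is the highest Masliner-normalised natural-log median intensity across replicate spots of either probe orientation.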

Sequence	gcPBM binding intensity (ln)
AAGAACAAACAAAATAGTACAATATATATATATATA [XGTACX_site4258]	9.7 ± 0.58
CATATATAGATATATACACACATATAGATTTTCTTT [CACACA_site6797]	7.54 ± 0.42
AACTATAATTAAAGGATGCACTTGAAGGCATTTCAA [GTGCAC_site9689]	7.85 ± 0.44
TATTCATAACAATGATGTACATATATTTTTTTTTTC [XGTACX_site5619]	7.54 ± 0.47
AAAAAAAAAAAAAAAAAAAAAAAAAAAGATTATGAG [CACACA_negctrl_site1088]	9.76 ± 0.071
TATAAAATACTGTATCGATGGGGGAGGGCGCAGGGG [TGCATGCA_negctrl_site250]	9.87 ± 0.028
TCAAATGTATATAATTGTACTTATCCTTTTCATTTT [XGTACX_site4879]	7.71 ± 0.63
AAAAATTAGAAACACACACACATATATATATATATT [CACACA_site1042]	8.02 ± 0.25
TTTTAAGTTTTTGAATGTACGTAATTTGTAAATTCT [XGTACX_site2448]	7.71 ± 0.38
ACATATATATTTATATGTACATATATTTATATATAT [XGTACX_site7469]	8.03 ± 0.37
AAAAATATTTAAAATACACACATATCTATAATATAT [CACACA_site7032]	7.51 ± 0.47
GTGGTATAAATTTTATGTACTTAATAACTCATTAAT [XGTACX_site5555]	7.79 ± 0.28
AAATCCATATAGGATTGTACATATATTATATATATA [XGTACX_site8818]	8.46 ± 0.39
CAAAATGTTAAAGATACACACCTAACAAACACAAAA [CACACA_site4685]	7.99 ± 0.47
AATTCTTTACTATTCACACATATAAATATTCACTTT [CACACA_site4886]	8 ± 0.7
AAAAAAAAAAAACACACACACACAAATACATACACA [CACACA_site706]	8.04 ± 0.16
TTTAATTTATATAATGATATTAAGTTGGTTATTAGG [CACACA_negctrl_site329]	7.4 ± 0.44
ATATAGTTTCACATGTGTACATAAAAATACACTTGT [XGTACX_site3339]	7.93 ± 0.26
ACAAAAATGAGATGGTGTACGCACAAATAAATAATA [XGTACX_site5221]	8.74 ± 0.45
AAATATTTATATGTTACACACTGTTTATAATTTTCT [CACACA_site4868]	7.5 ± 0.69
CAATGTATTTAGAATACATGCATATTTTCATAATGT [TGCATGCA_site221]	7.55 ± 0.57
AATTATGCACAAATCACACATATAAAATAAAAAGTG [CACACA_site4474]	10.3 ± 0.79

Sequence	gcPBM binding intensity (ln)
CTCATCCTTACATACACACACATATATTTATTTATA [CACACA_site6202]	8.21 ± 0.33
AAATTATAGAATCATTGTACTTTTTTTTTTTTTTTT [XGTACX_site1280]	8.69 ± 0.38
ATAATAACTTGTAAGGTGCATTTTATGTTTTCTTAA	10.1 ± 0.41
TATGCTTCAAAATTGTGTACATATATAATATATTAT [XGTACX_site6760]	7.95 ± 0.38
TTAATAATTATAACATGTACATACACTAAATTTTTT [XGTACX_site8953]	8.03 ± 0.48
CAAATATATATTTATTGTACATATTGTTTATATGGT [XGTACX_site5246]	7.63 ± 0.4
CATCCAAAAATATTATGTACTAAATTTGGATGTATT [XGTACX_site3954]	7.43 ± 0.52
TATAAAATTATGTGTACACAAATATAACTTTTCTTT [CACACA_site5554]	8.24 ± 0.52
AAAATATTTCTTCTTTGTACTTATATATATTTAATT [XGTACX_site5446]	7.95 ± 0.71
TATTCATATTCCAAGTGTACACATAAATCCCTAATA [XGTACX_site4131]	7.96 ± 0.43
TACTTACCTATAATAACACACAAGAAAAAAATAAAA [CACACA_site6616]	7.93 ± 0.61
AAATAATATCATAAATGTACATATATCATATTATTA [XGTACX_site5372]	7.55 ± 0.3
AACACCAAACTAAATGTACACACATACATAAATATA [CACACA_site8298]	8.04 ± 0.25
AATATAAACACAAACACACACATATATATATATATA [CACACA_site4307]	9.49 ± 0.45
TTATTTAAACAAATCACACACAAATATAAATACATA [CACACA_site5158]	7.68 ± 0.3
AGGTTGAATATATATTTGTGATTATATTATTTTATT [CACACA_negctrl_site778]	7.46 ± 0.53
TATATATATATATAATGTACAAACTCCTTTATATAT [XGTACX_site4545]	9.2 ± 0.52
CCATGTCAAACATTTGCACACAAAAAAATAAAAATT [CACACA_site4546]	9.46 ± 0.14
GTTTTTTTTATATATTGTACAAATAATATATTATAT [XGTACX_site29]	8.28 ± 0.67
TCATTCAAAAAAAATCAACACACAGTTACATAGCTC [CACACA_site8700]	7.71 ± 0.73
TTTTAAAACTACATTGGTACACAATAAAAAAAAAAA [XGTACX_site2793]	8.04 ± 0.71
TTTTAAAAAAAAAAAATAAATAAATAAGATATTATC [CACACA_negctrl_site1791]	7.34 ± 0.57
